Some of the results follow. The full chains were built here from the parent and the listed change. Inactive controls read about 0.05.
B1: TEV protease; numbered along this chain (parent)
chain: MGESLFKGPRDYNPISSSICHLTNESDGHTTSLYGIGFGPFIITNKHLFRRNNGTLVVQSLHGVFKVKDTTTLQQHLVDGRDMIIIRMPKDFPPFPQKLKFREPQREERICLVTTNFQTKSMSSMVSDTSCTFPSGDGIFWKHWIQTKDGQCGSPLVSTRDGFIVGIHSASNFTNTNNYFTSVPKNFMELLTNQEAQQWVSGWRLNADSVLWGGHKVFMVKPEEPFQPVKEATQL

Variants of: B1
Test: raw area under fraction-flipped curve 0-4 h after induction (AUC4h, not background-subtracted), DNA-recorder readout of cleavage of the substrate (dimensionless); higher = more cleavage of the substrate by the protease variant
Settings: temperature: 34 °C; time window: 0-4 h after rhamnose induction
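Also: Bxb1 expression induced with 0.2% (w/v) L-rhamnose at OD600 near 0.5, cultures sampled hourly, flipped fraction per protease–substrate barcode pair counted by paired-end Illumina sequencing.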

| Variant | area with substrate ENLYFFS | area with substrate ENLYFHS | area with substrate ENLYFLS | area with substrate ENLYFPS | area with substrate ENLYFTS | area with substrate ENLYFVS | area with substrate ENLYFYS | area with substrate ENLYFIS | area with substrate ENLYFKS | area with substrate ENLYFWS |
| --- | --- | --- | --- | --- | --- | --- | --- | --- | --- | --- |
| MGESLFKGPIDYNPISSSICHLTNESDGHTTSLYGIGFGPFIITNKHLFRRNNGTLVVQSLHGVFKVKDTTTLQQHLVDGRDMIIIRMPKDFPPFPQKLKFREPQREERICLVTTNFQTKSMSSMVSDTSCTFPSGDGIFWKHWIQTKDGQCGSPLVSTRDGFIVGIHSASNFTNTNNYFTSVPKNFMELLTNQEAQQWVSGWRLNADSVLWGGHKVFMVKPEEPFQPVKEATQL [R10I] | 0.0634 | 0.0704 | 0.0686 | 0.0561 | 0.0675 | 0.0486 | 0.0586 | – | – | – |
| MGESLFKGPRDYNPISSSICHLTNESDGHTTSLYGIGFGPFIITNKHLFRRNNGTLVVQSLHGVFKVKDTTTLQQHLVDGRDMIIIRMPKDFPPFPQKLKFREPQREERICLVTTNFQTKSMSSMVSDTSCTFPSGDGIFWKHWIQTKDGQCGSPLVSTRDGFIVGIHSASNFTNTNNYFTSVPKNFMELLTNQEAQQWVSGWRFNADSVLWGGHKVFMVKPEEPFQPVKEATQL [L205F] | 0.0656 | 0.0346 | 0.0384 | – | 0.0575 | 0.0064 | 0.0732 | 0.0571 | 0.0914 | 0.0303 |
| MGESLFKGPRDYNPISSSICHLTNESDGHTTSLYLIGFGPFIITNKHLFRRNNGTLVVQSLHGVFKVKDTTTLQQHLVDGRDMIIIRMPKDFPPFPQKLKFREPQREERICLVTTNFQTKSMSSMVSDTSCTFPSGDGIFWKHWIQTKDGQCGSPLVSTRDGFIVGIHSASNFTNTNNYFTSVPKNFMELLTNQEAQQWVSGWRLNADSVLWGGHKVFMVKPEEPFQPVKEATQL [G35L] | 0.0589 | – | – | 0.0448 | 0.0522 | 0.0446 | 0.0516 | 0.049 | – | 0.0515 |
| MGESLFKGPRDYNPISSSICHLTNESDGHTTSLYGIGFGPFIITNKHLFRRNNGTLVVQSLHGVFKVKDTTTLQQHLVDGRDMIIIRMPKDFPPFPQKLKFREPQREERICLVTTNFQTKSMSSMVSDTSCTFPSGDGIFWKHWIQTKDGQCGSPLVSTRDGFIVGIHSASNFTNTNNYFTSVPKNFMELLYNQEAQQWVSGWRLNADSVLWGGHKVFMVKPEEPFQPVKEATQL [T192Y] | 0.0763 | – | – | 0.062 | 0.0574 | – | 0.0617 | 0.0604 | – | 0.0666 |
| MGESLFKGPRDYNPISSSICHLTNESDGHTTSLYGIGFGPFIITNKHLFRRNNGTLVVQSLHGVFKVKDTTTLQQHLVDGRDMIIIRMPKDFPPFPQKLNFREPQREERICLVTTNFQTKSMSSMVSDTSCTFPSGDGIFWKHWIQTKDGQCGSPLVSTRDGFIVGIHSASNFTNTNNYFTSVPKNFMELLTNQEAQQWVSGWRLNADSVLWGGHKVFMVKPEEPFQPVKEATQL [K100N] | 0.0788 | 0.0603 | – | – | 0.0849 | – | – | 0.06 | 0.0569 | – |
| MGESLFKGPRDYNPISSSICHLTNESDGHTTSLYGIGFGPFIITNKHLFRRNNGTLVVQSLHGFFKVKDTTTLQQHLVDGRDMIIIRMPKDFPPFPQKLKFREPQREERICLVTTNFQTKSMSSMVSDTSCTFPSGDGIFWKHWIQTKDGQCGSPLVSTRDGFIVGIHSASNFTNTNNYFTSVPKNFMELLTNQEAQQWVSGWRLNADSVLWGGHKVFMVKPEEPFQPVKEATQL [V64F] | – | – | – | – | – | – | – | 0.0563 | 0.0488 | – |
| MGESLFKGPRDYNPISSSICHLTNESDGHTTSLYGIGFGPFIITNKHLFRRNNGTLVVQSLHGVFKVKDTTTLQQHTVDGRDMIIIRMPKDFPPFPQKLKFREPQREERICLVTTNFQTKSMSSMVSDTSCTFPSGDGIFWKHWIQTKDGQCGSPLVSTRDGFIVGIHSASNFTNTNNYFTSVPKNFMELLTNQEAQQWVSGWRLNADSVLWGGHKVFMVKPEEPFQPVKEATQL [L77T] | – | – | 0.0641 | 0.0556 | 0.0676 | 0.0484 | – | 0.0433 | – | 0.0497 |

Same assay, conditions: temperature: 34 °C; time window: 0-4 h after rhamnose induction

| Variant | area with substrate ENLYFGS | area with substrate ENLYFMS | area with substrate ENLYFNS | area with substrate ENLYFRS | area with substrate ENLYFSS |
| --- | --- | --- | --- | --- | --- |
| MGESLFKGPRDYNPISSSICHLTNESDGHTTSLYLIGFGPFIITNKHLFRRNNGTLVVQSLHGVFKVKDTTTLQQHLVDGRDMIIIRMPKDFPPFPQKLKFREPQREERICLVTTNFQTKSMSSMVSDTSCTFPSGDGIFWKHWIQTKDGQCGSPLVSTRDGFIVGIHSASNFTNTNNYFTSVPKNFMELLTNQEAQQWVSGWRLNADSVLWGGHKVFMVKPEEPFQPVKEATQL [G35L] | 0.0412 | – | – | – | – |
| MGESLFKGPRDYNPISSSICHLTNESDGHTTSLYGIGFGPFIITNKHLFRRNNGTLVVQSLHGVFKVKDTTTLQQHLVDGRDMIIIRMPKDFPPFPQKLKFREPQREERICLVTTNFQTKSMSSMVSDTSCTFPSGDGIFWKHWIQTKDGQCGSPLVSTRDGFIVGIHSASNFTNTNNYFTSVPKNFMELLYNQEAQQWVSGWRLNADSVLWGGHKVFMVKPEEPFQPVKEATQL [T192Y] | – | 0.0442 | – | – | – |
| MGESLFKGPRDYNPISSSICHLTNESDGHTTSLYGIGFGPFIITNKHLFRRNNGTLVVQSLHGVFKVKDTTTLQQHLVDGRDMIIIRMPKDFPPFPQKLNFREPQREERICLVTTNFQTKSMSSMVSDTSCTFPSGDGIFWKHWIQTKDGQCGSPLVSTRDGFIVGIHSASNFTNTNNYFTSVPKNFMELLTNQEAQQWVSGWRLNADSVLWGGHKVFMVKPEEPFQPVKEATQL [K100N] | 0.0692 | 0.0702 | 0.0603 | 0.0537 | – |
| MGESLFKGPRDYNPISSSICHLTNESDGHTTSLYGIGFGPFIITNKHLFRRNNGTLVVQSLHGFFKVKDTTTLQQHLVDGRDMIIIRMPKDFPPFPQKLKFREPQREERICLVTTNFQTKSMSSMVSDTSCTFPSGDGIFWKHWIQTKDGQCGSPLVSTRDGFIVGIHSASNFTNTNNYFTSVPKNFMELLTNQEAQQWVSGWRLNADSVLWGGHKVFMVKPEEPFQPVKEATQL [V64F] | – | – | – | – | 0.0557 |
| MGESLFKGPRDYNPISSSICHLTNESDGHTTSLYGIGFGPFIITNKHLFRRNNGTLVVQSLHGVFKVKDTTTLQQHTVDGRDMIIIRMPKDFPPFPQKLKFREPQREERICLVTTNFQTKSMSSMVSDTSCTFPSGDGIFWKHWIQTKDGQCGSPLVSTRDGFIVGIHSASNFTNTNNYFTSVPKNFMELLTNQEAQQWVSGWRLNADSVLWGGHKVFMVKPEEPFQPVKEATQL [L77T] | – | – | 0.0422 | 0.0446 | 0.073 |

Reference: the supplement of paper PMC12217912
